Where “and” joins values, the source holds several entries; their conditions need not be identical. Identical values can stand only once. The inconclusive results got no clear call from the source; some entries with a clear call stand among them for comparison. A potency beside an inconclusive call is a rough fit, not a confirmed value. Calls of active or inactive are those of the source. Calls come from the whole dose curve; as a rule, active = well fitted cell-killing curve with a large enough effect in the repeat runs; inconclusive = weak or mixed curves, or effect the other way; inactive = flat fitted curve, though single readings scatter.
Assay: qHTS assay to identify small molecule agonists of the sonic hedgehog signaling (Shh) pathway - cell viability counter screen (AID 1259366); note: nearly all actives have a fitted effect of over 50% in size
Conditions: NIH/3T3 Gli1-Luc viability, CellTiter-Fluor, 24 h; series mostly up to 92.4 µM
Source text: National Center for Advancing Translational Sciences [NCATS]
NIH Chemical Genomics Center [NCGC]
U.S. Environmental Protection Agency [EPA]
National Institutes of Environmental Health Sciences [NIEHS]
National Toxicology Program [NTP]
U.S. Food and Drug Administration [FDA]
The sonic hedgehog (Shh) pathway is essential for normal embryonic development. Dysregulation of the Shh pathway can cause severe developmental defects in organs. Therefore chemicals that interfere with the pathway are potential developmental toxicants. A cell line designated 3T3Gli1-Luc (DMB/OARSA/CFSAN/FDA, Laurel, MD), a NIH/3T3 derived clone containing stably integrated Gli1-Luc reporter is used to detect chemical interference of the Shh pathway, by changes in the expression of the firefly Luc gene under the control of the Gli1 transcriptional response element. This cell line was used to screen Tox21 libraries for identifying and prioritizing the potential developmental toxicants that interfere Shh pathway. The cytotoxicity of the compounds was tested in parallel by measuring the cell viability using CellTiter-Fluor assay system (Promega, Madison, WI) in the same wells.
Tox21 Assay Protocol Summary:
3T3 Gli1-Luc cells were dispensed at 2,000 per well in 5uL of culture medium into white solid bottom 1536-well plates (Greiner Bio-One, Monroe, NC) using a Multidrop Combi (Thermo Scientific, Waltham, MA) dispenser. The assay plates were incubated at 37 C and 5% CO2 for 4hr, and then 23nL of compounds dissolved in DMSO and positive control were transferred using a Pintool station (Wako, San Diego, CA). The assay plates were incubated at 37C and 5% CO2 for 24hr. For viability read, after 23hr of compound treatment, 1uL of CellTiter-Fluor reagent (Promega Corporation, Madison, WI) was added to each well of the assay plates using Flying Reagent Dispenser (FRD, Aurora Discovery, San Diego, CA) and incubated the assay plates at 37C for 1hr. The fluorescence signal was quantified using a ViewLux plate reader (Perkin Elmer, Shelton, CT).
Potency is the fitted concentration of half-maximal effect; tags give direction and shape of the fitted curve.

Q: Which Potency does the source give for CN(C)CCOC(c1ccccc1)c1ccccc1 here?
A: inconclusive: 43.3 µM [cytotoxic, partial curve, poor fit]

Q: With CCCNCC(O)COc1ccccc1C(=O)CCc1ccccc1 (stereo not given) as the molecule, how does the Potency read?
A: inconclusive: 37.6 µM [cytotoxic, partial curve, poor fit]

Q: With O=C(NC1CCN(CCc2c[nH]c3ccccc23)CC1)c1ccccc1 as the molecule, how does the Potency read?
A: inconclusive: 26.6 µM [cytotoxic, partial curve, poor fit]

Q: Which Potency does the source give for O=C(O)c1cc(N=Nc2ccc(S(=O)(=O)Nc3ccccn3)cc2)ccc1O here?
A: inconclusive: 11.9 µM [cytotoxic, partial curve]

Q: For O=C(O)c1c(O)c(-c2ccccc2)nc2ccccc12, which Potency is on record?
A: inactive

Q: For O=C=NC1CCC(CC2CCC(N=C=O)CC2)CC1 (stereo not given), which Potency is on record?
A: inconclusive: 61.1 µM [cytotoxic, partial curve, poor fit]

Q: Which Potency does the source give for Cc1ccccc1C(OCCN(C)C)c1ccccc1 (stereo not given) here?
A: inconclusive: 48.6 µM [cytotoxic, partial curve, poor fit] and inactive

Q: For CNCCCCOc1ccccc1Cc1ccccc1, which Potency is on record?
A: active: 33.5 µM

Q: For O=C(c1ccccc1)c1ccc(O)c(O)c1O, which Potency is on record?
A: inconclusive: 30.9 µM [cytotoxic, partial curve] and inconclusive: 34.4 µM [cytotoxic, partial curve]

Q: For CN(C)C(=O)NC1(c2ccccc2)CCN(CC[C@@]2(c3ccc(F)c(F)c3)CN(C(=O)c3ccccc3)CCO2)CC1, which Potency is on record?
A: inconclusive: 45.1 µM [cytotoxic, partial curve]

Q: With C#Cc1cccc(Nc2ncnc3cc(OCCOC)c(OCCOC)cc23)c1 as the molecule, how does the Potency read?
A: inconclusive: 10.6 µM [cytotoxic, full curve]

Q: For CN(C)Cc1cc(CN(C)C)c(O)c(CN(C)C)c1, which Potency is on record?
A: inactive

Q: For CNNCc1ccc(C(=O)NC(C)C)cc1, which Potency is on record?
A: inactive

Q: For COc1ccc2c(c1)c(CC(=O)O)c(C)n2C(=O)c1ccc(Cl)cc1, which Potency is on record?
A: inconclusive: 61.5 µM [cytotoxic, partial curve, poor fit]

Q: Which Potency does the source give for N=C(N)S(=O)O here?
A: inactive

Q: With Oc1ccc(/C=C/c2cc(O)cc(O)c2)cc1 as the molecule, how does the Potency read?
A: inconclusive: 21.1 µM [cytotoxic, partial curve]

Q: For CC1=NN(c2cc(S(=O)(=O)O)ccc2Cl)C(=O)C1N=Nc1ccccc1 (stereo not given), which Potency is on record?
A: active: 13.7 µM

Q: For O=C(O)c1ccccc1Nc1cc(Cl)ccc1C(=O)O, which Potency is on record?
A: inconclusive: 10.3 µM [rising, partial curve, poor fit]

Q: For Clc1ccccn1, which Potency is on record?
A: inactive

Q: With CC(C)=CCC/C(C)=C/CC/C(C)=C/CO as the molecule, how does the Potency read?
A: inactive

Q: For CN(C)CCOCCO, which Potency is on record?
A: inactive

Q: Which Potency does the source give for Nc1nccs1 here?
A: inactive

Q: For Cc1nc2ccccc2n1Cc1ccc(Cl)cc1, which Potency is on record?
A: inconclusive: 4.73 µM [rising, partial curve]

Q: For CC(=O)[C@H]1CC[C@H]2[C@@H]3C[C@H](C)C4=CC(=O)CC[C@]4(C)[C@H]3[C@@H](O)C[C@]12C, which Potency is on record?
A: inactive

Q: For CC(C)=NNC(N)=S, which Potency is on record?
A: inactive

Q: For Cc1c(Cl)c(=O)oc2cc(O)ccc12, which Potency is on record?
A: inconclusive: 54.5 µM [rising, partial curve]

Q: For CO/N=C(/C(=O)N[C@@H]1C(=O)N2C(C(=O)O)=C(Cn3nnc(C)n3)CS[C@H]12)c1csc(N)n1, which Potency is on record?
A: inconclusive: 13.3 µM [rising, single point]

Q: With OCC(O)CS (stereo not given) as the molecule, how does the Potency read?
A: inconclusive: 69.3 µM [rising, single point]

Q: With CC1=C(C)C(=O)C(C(CCCCCC(=O)O)c2ccccc2)=C(C)C1=O (stereo not given) as the molecule, how does the Potency read?
A: inconclusive: 11.9 µM [cytotoxic, partial curve]

Q: For CO[Si](OC)(c1ccccc1)c1ccccc1, which Potency is on record?
A: inconclusive: 68.6 µM [cytotoxic, single point]

Q: For O=C(O)c1ccc(O)c(O)c1, which Potency is on record?
A: inactive

Q: Which Potency does the source give for O=C1OC2(c3ccccc31)c1ccc(O)c(Br)c1Oc1c2ccc(O)c1Br here?
A: inconclusive: 30.6 µM [rising, partial curve]

Q: With CC[C@]12CCCN3CCc4c(n(c5ccccc45)C(=O)C1)[C@@H]32 as the molecule, how does the Potency read?
A: inconclusive: 23.7 µM [cytotoxic, partial curve]

Q: Which Potency does the source give for CC(C)O here?
A: inconclusive: 73.6 µM [cytotoxic, single point]

Q: Which Potency does the source give for COc1ccc(N=Nc2cc(C)c(N=Nc3ccc(S(=O)(=O)O)cc3)cc2OC)cc1 here?
A: active: 54.5 µM

Q: Which Potency does the source give for Cc1ccccc1C(=O)N1CC/C(=N\OS(=O)(=O)O)c2ccc(Cl)cc21 here?
A: inactive

Q: For ClC(Cl)Cl, which Potency is on record?
A: inconclusive: 68 µM [cytotoxic, single point]

Q: With Oc1cc(O)c(Cl)cc1Cl as the molecule, how does the Potency read?
A: inactive

Q: With COC(=O)N[C@H](C(=O)N[C@@H](Cc1ccccc1)[C@@H](O)CN(Cc1ccc(-c2ccccn2)cc1)NC(=O)[C@@H](NC(=O)OC)C(C)(C)C)C(C)(C)C as the molecule, how does the Potency read?
A: inconclusive: 11.9 µM [cytotoxic, partial curve]

Q: For O=C(/C=C/c1ccc(O)c(O)c1)O[C@@H]1C[C@](O)(C(=O)O)C[C@@H](O)[C@H]1O, which Potency is on record?
A: inactive

— PubChem BioAssay (Tox21)
